Assay results published in PMC3162478 (Nature, 2011).

T1: FimD usher, full-length (undigested), with C-terminal Strep-tag II (Escherichia coli, UniProt P30130 46-878)
T1 sequence: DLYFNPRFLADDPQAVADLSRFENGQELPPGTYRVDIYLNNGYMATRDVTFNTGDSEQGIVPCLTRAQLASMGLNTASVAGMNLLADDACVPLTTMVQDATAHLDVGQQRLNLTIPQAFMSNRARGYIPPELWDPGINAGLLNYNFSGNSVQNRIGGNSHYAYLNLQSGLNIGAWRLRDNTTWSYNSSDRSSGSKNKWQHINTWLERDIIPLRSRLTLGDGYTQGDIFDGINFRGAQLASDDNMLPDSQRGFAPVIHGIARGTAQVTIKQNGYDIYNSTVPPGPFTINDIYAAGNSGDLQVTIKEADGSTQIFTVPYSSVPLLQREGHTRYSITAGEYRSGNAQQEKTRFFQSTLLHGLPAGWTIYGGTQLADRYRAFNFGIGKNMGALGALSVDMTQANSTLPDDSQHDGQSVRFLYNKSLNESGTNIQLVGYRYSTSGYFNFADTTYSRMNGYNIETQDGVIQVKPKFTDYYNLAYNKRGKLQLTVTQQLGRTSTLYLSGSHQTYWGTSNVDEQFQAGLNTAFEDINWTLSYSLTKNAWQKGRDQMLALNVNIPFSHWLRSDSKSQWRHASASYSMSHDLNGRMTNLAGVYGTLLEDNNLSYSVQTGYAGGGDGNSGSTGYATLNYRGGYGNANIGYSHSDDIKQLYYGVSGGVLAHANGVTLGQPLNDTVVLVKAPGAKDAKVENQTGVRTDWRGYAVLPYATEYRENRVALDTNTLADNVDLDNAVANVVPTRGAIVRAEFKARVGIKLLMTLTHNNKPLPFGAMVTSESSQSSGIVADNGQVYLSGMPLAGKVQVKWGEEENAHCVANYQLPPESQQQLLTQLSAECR

B1: FimC:FimH chaperone:adhesin complex (complex)
chain 1: GVALGATRVIYPAGQKQEQLAVTNNDENSTYLIQSWVENADGVKDGRFIVTPPLFAMKGKKENTLRILDATNNQLPQDRESLFWMNVKAIPSMDKSKLTENTLQLAIISRIKLYYRPAKLALPPDQAAEKLRFRRSANSLTLINPTPYYLTVTELNAGTRVLENALVPPMGESTVKLPSDAGSNITYRTINDYGALTPKMTGVME
chain 2: [letters of about 300 residues left out]
B2: FimH adhesin (natural protein)
chain: not shown

Target: T1, FimD usher, full-length (undigested), …
Assay: AUC

Binder	stoichiometry N
B1	1
B2	1
